Assay results from PubChem BioAssay (NCI).
Where “and” joins values, the source holds several entries; their conditions need not be identical. Equal entries are not always repeated.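 Compound exposure: 48 hours, 5 concentrations, 96-well plates. Here, GI50 denotes the concentration required for 50% inhibition of growth. TGI: concentration producing complete growth inhibition.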

These compounds were tested on NCI-H322M lung (assay: NCI anticancer screen, dose series, 48 h).

Compound | GI50 [µM] | TGI
C=C(CN1CCc2ccccc2C1)c1ccc(CCC(=O)Nc2ccccc2N)cc1 | 33.5 | > 100 µM
c1ccc2c(c1)CN1CCCC1CN2 (stereo not drawn) |  | > 100 µM
Brc1ccc2c(C3CN[C@@H](c4c[nH]c5cc(Br)ccc45)CN3)c[nH]c2c1 (stereo partly drawn) |  | 13.8 µM
COc1cccc2c1C(=O)C1(O)CCCCC21 (stereo not drawn) |  | > 100 µM
Clc1ccc(Cl)c(NNc2cc(Cl)ccc2Cl)c1 |  | > 10 µM
COC(=O)C(C(=O)C(=O)Nc1nc(=S)[nH][nH]1)c1csc(N)n1 (stereo not drawn) |  | > 100 µM
COc1cc(C(C)c2cc3c(cc2OCCN)OCO3)cc(OC)c1OC (stereo not drawn) |  | > 100 µM
Cc1cc2nc3c4cc(C=O)ccc4n(CCN(C)C)c3nc2cc1C | 1.62 | 6.24 µM
O=S(CCc1ccccc1)Nc1ccccc1 (stereo not drawn) |  | > 100 µM
Cc1cc(CN2CCCCC2)c(O)c(CN2CCCCC2)c1 |  | > 100 µM
Cc1cn(C(=O)NC23CC4CC(CC(C4)C2)C3)c(=O)[nH]c1=O |  | > 100 µM
COc1cc(C2C(C(=O)O)=C(CO)Oc3cc4c(cc32)OCO4)cc(OC)c1OC (stereo not drawn) |  | > 100 µM
CC1(C)C2CCC1(C)[C@H](O)[C@H]2Nc1cc(C(F)(F)F)cc(C(F)(F)F)c1 (stereo partly drawn) |  | 18.6 µM
CC1=CP(=O)(OC(C)C)CC(C)=C1Cl (stereo not drawn) |  | > 100 µM
O=C(OC1C=C=CS(=O)(=O)CC#C/C=C\1)c1cnc2ccccc2n1 (stereo not drawn) |  | > 100 µM
COc1ccc(C(=O)Cc2ccc(Cl)cc2)cc1OC |  | > 100 µM
O=C(/C=C/c1cccc2ccccc12)c1ccccc1 |  | 25 µM
O=C1CC(c2ccccc2Cl)C2(C(=O)NC(=S)NC2=O)C(c2ccccc2Cl)C1 (stereo not drawn) |  | 4.18 µM
CC(C)(C)N1C(=O)N=[N+](/C(=C(\c2ccccc2)n2nc([O-])n(C(C)(C)C)c2=O)c2ccccc2)C1=O |  | > 100 µM
COCn1cnc2c(=O)n(-c3ccc(C)cc3)c(=S)n(-c3ccc(C)cc3)c21 |  | > 100 µM
ClCc1nn(-c2ccccc2)c(CCl)c1CCl |  | 27.5 µM
O=C(NNc1cn[nH]c(=O)n1)c1cccc2nc3ccccc3nc12 |  | > 100 µM
COc1ccc(OC)c2c(C(=O)O)c(C(C)c3ccccc3)ccc12 (stereo not drawn) |  | > 100 µM
CCOP(=O)(OCC)OC1c2[nH]ccc2-c2cc(C(=O)OC)[nH]c2C1OC (stereo not drawn) |  | > 100 µM
COc1ccc(CN=C2N/C(=C\c3ccccc3Cl)C(=O)N2C)cc1 |  | > 100 µM

Compound | GI50 [µM] | TGI
CC(C)(C)OCC1NC(=O)[C@@H]2Cc3c([nH]c4ccccc34)C(C3CCCCC3)N2C1=O (stereo partly drawn) |  | > 100 µM
CC#CC#Cc1cccc(=O)o1 | 6.31 | 21.5 µM
N#Cc1nnc2ccccc2c1N |  | > 100 µM
COc1ccc(-c2nnc(-c3nsc4ccccc34)o2)cc1 |  | > 100 µM
C/C(O)=c1\cc(C#N)c(=C(C#N)C#N)nc1C |  | > 100 µM
CCCOC(=O)c1ccc2c(c1)[N+](=O)C(C(=O)c1ccccc1)=C(C(F)(F)F)[N+]2=O | 1.82 | 3.28 µM
CCCCSC(=CC(=O)c1cccc(C(=O)C=C(SCCCC)SCCCC)n1)SCCCC |  | > 100 µM
Cc1cc2c(cc1C)[n+]([O-])c(NCCCN(C)C)c(C#N)[n+]2[O-] |  | > 100 µM
CCOC(=O)Nn1cnnc1C |  | > 100 µM
COc1ccc([C@H]2[C@H](C)C3=Nc4ccccc4CN32)cc1 |  | > 100 µM
COC(=O)C(=Cc1ccccc1[N+](=O)[O-])C(=O)OC | 11.9 | 24.3 µM
CCC[CH2][Sn]1([CH2]CCC)[O]CC(c2ccccn2)C[O]1 | 33 | > 100 µM
COC(=O)c1c(O)ccc2c1c1c(n2CCc2ccccc2)C(=O)c2ccccc2C1=O |  | 29.9 µM
COc1cc(-c2ccc(N=Nc3c(S(=O)(=O)O)cc4cc(S(=O)(=O)O)cc(N)c4c3O)c(OC)c2)ccc1N=Nc1c(S(=O)(=O)O)cc2cc(S(=O)(=O)O)cc(N)c2c1O |  | > 100 µM
Cc1ccc(N=Nc2c(-c3ccccc3)nn(C(=O)CC(=O)Nc3ccc(Cl)cc3)c2-c2ccccc2)cc1 |  | > 100 µM
CCN(CC)CCNc1ccc(C)c2sc3ccccc3c(=O)c12 (tested in a mixture with another compound) | 3.57 | 13.7 µM and 14.5 µM
COC(=O)C1=C(OC(=O)/C(=C/c2ccccc2)c2ccccc2)C(C(=O)OC)[C@@]2(O)[C@@H](C(=O)OC)[C@H](C)C[C@@H]1[C@@H]2C(=O)OC (stereo partly drawn) |  | > 100 µM
O=C1Nc2ccc(Br)cc2C1=Nc1ccc2c(c1)OCO2 |  | > 100 µM
Cc1cc(C23OC4COC(C)(C)OC4C2OC(C)(C)O3)nc2ccccc12 (stereo not drawn) |  | > 100 µM
CC(=O)N1CCN([C@H]2CCC[C@@H](NC(=O)c3cc4c(F)ccc(C)c4[nH]3)C2)CC1 | 14.7 | > 100 µM
CC(=O)OC1(C)C(=O)OC/C2=C/CN(C)CCC(OC(=O)C(O)(C(C)Cl)CC1C)C2=O (stereo not drawn) |  | > 100 µM
O=C(CCc1ccc(O)cc1)NCCc1cccc(O)c1 |  | > 50 µM
COc1cc(/C=C2\N=C(c3ccccc3)N(c3cc4cc(Sc5ccccc5)ccc4[nH]3)C2=O)cc(OC)c1OC |  | > 75 µM
CCOC(=O)C1=NC(c2ccccc2)(c2ccccc2)OC1=C(Cl)Cl |  | > 100 µM
Cn1c(N)c(Cc2ccc(Cl)cc2)c(=O)[nH]c1=O |  | > 100 µM
